PubChem BioAssay AID1508642 (National Center for Advancing Translational Sciences (NCATS), 2021)
Hit rate of the full screen: of about 43,000 compounds, about 200 (0.47%) were called active. Not shown: some 12% with an inconclusive outcome. Calls come from the whole dose curve; as a rule, active = well fitted cell-killing curve with a large enough effect; inconclusive = small, poorly fitted or top-dose-only effect, or effect the other way; inactive = flat fitted curve, though single readings scatter. The list shows a part of the results.

Assay: Cell viability qHTS assay in S16 Pmp22-F2sN cells; note: nearly all actives have a fitted effect of over 65% in size
Details: S16 Pmp22-F2sN Schwann cells (luciferase reporters placed in the Pmp22 gene) viability, CellTiter-Glo, 24 h; series mostly up to 57.5 µM; activity change, negative = cytotoxicity: at the top concentration
Method in brief: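 CellTiter-Glo counter-screen, qHTS, 1536-well. Cells: S16(c9) Pmp22-F2sN, 500-1,000/well in DMEM + 10% FBS. Cpd 23 nL pin transfer, 24 h, 37C/5% CO2. Read: luminescence, CCD imager.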
% is set by controls: 0 for no effect and ±100 for the full control effect; potency is the fitted concentration of half-maximal effect.

Row | SMILES | activity change, negative = cytotoxicity | Potency
1 | Cc1ccc(Cn2c(=O)n(CCCCC(=O)NCCc3ccc(Cl)cc3)c(=O)c3ccccc32)cc1 | inactive: 24.9% | –
2 | CCc1nnc2c(Nc3ccc(Br)c(C)c3)nc3ccccc3n12 | inactive: -0.143% | –
3 | COc1ccc(S(=O)(=O)N2CCN(c3ccc(F)cc3)CC2)cc1-c1noc(C)n1 | inactive: -4.68% | –
4 | Cc1cc(C)cc(OCC(=O)NCC(c2ccc(Cl)cc2)N2CCCCC2)c1 (stereo unspecified) | inactive: 6.32% | –
5 | CC1CCc2c(sc3nnn(Cc4ccc(F)cc4)c(=O)c23)C1 (stereo unspecified) | inactive: -6.59% | –
6 | Cn1c(=O)c2c(n3c4ccccc4nc13)NC(=O)CC2c1ccccc1F (stereo unspecified) | inactive: -14.3% | –
7 | CCOC(=O)c1c(Oc2ccc(C(=O)OC)cc2)nnc(-c2ccccc2)c1-c1ccccc1 | inactive: -15.4% | –
8 | Cc1ccc(C)c(N(C)C(=O)c2cn(C)c(=O)c3ccccc23)c1 | inactive: -0.87% | –
9 | COc1cc(NC(=O)Cn2c(SCc3ccc(F)cc3)nc3cccnc32)cc(OC)c1 | inactive: 5.14% | –
10 | Cc1ccc(CCNC(=O)CCc2cn(Cc3ccccc3C)c3ccccc23)cc1 | inactive: 5.23% | –
11 | Cc1cc(C)cc(-n2cnc3cc(C(=O)NCCc4ccccc4)ccc32)c1 | inactive: -4.47% | –
12 | Cc1cccc(NC(=O)c2cc(S(=O)(=O)N3CCCCC3)c[nH]2)c1C | inactive: -12.2% | –
13 | Brc1csc(CN2CCc3nc(Nc4ccccc4)ncc3C2)c1 | inactive: -6.15% | –
14 | COc1cc(CN(C(=O)c2cc3ccccc3oc2=O)C2CCS(=O)(=O)C2)cc(OC)c1OC (stereo unspecified) | inactive: 0.0163% | –
15 | Cc1cccc(Cn2c(SCc3ccc(C(=O)N4CCCCCC4)cc3)nc3ccncc32)c1 | inactive: -19.9% | –
16 | O=C(c1cccc(Cl)c1)n1nc(-c2ccco2)nc1NCc1cccs1 | inactive: -19.5% | –
17 | O=C(CNC(=O)c1ccccc1Cl)OCc1cc(=O)n2ccsc2n1 | inactive: -1.08% | –
18 | COc1ccccc1-n1cc(-c2ccc(C)cc2)nc1S(=O)(=O)CC(=O)Nc1ccccc1C(F)(F)F | inactive: -7.49% | –
19 | COc1ccc(CNCCSc2nnnn2-c2ccccc2)cc1 | inactive: 2.53% | –
20 | COc1ccc(CC(=O)Nc2ccc3nc(Nc4cccc(Cl)c4)cc(C)c3c2)cc1OC | inactive: -12.2% | –
21 | COc1ccccc1NC(=O)CSc1nnc(-c2cccc(Cl)c2)o1 | inactive: -2.63% | –
22 | CCOc1ccccc1-c1nc(-c2ccc(-c3ccccc3)nc2OCC)no1 | inactive: 1.48% | –
23 | COc1ccccc1Nc1c2c(nc3ccc(NC(=O)/C=C/c4cccc(OC)c4OC)cc13)CCCC2 | – | active: 25.1 µM
24 | Cc1ccc(Nc2c3c(nc4nncn24)CCC3)cc1 | inactive: 3.65% | –

Row | SMILES | activity change, negative = cytotoxicity | Potency
25 | COc1cc(OC)c(NC(c2nnc(-c3ccccc3)o2)c2ccc(F)cc2Cl)cc1Cl (stereo unspecified) | inactive: -20.9% | –
26 | CCc1ccc(-n2nnc(-c3nc(-c4ccccc4)no3)c2C)cc1 | inactive: -1.23% | –
27 | COc1ccc(CCNC(=O)c2ccc3c(c2)N(Cc2cccc(C)c2)C(=O)c2ccccc2S3(=O)=O)cc1OC | inactive: 11.9% | –
28 | COC(=O)c1ccc(NC(=O)C2(S(=O)(=O)c3ccc(C)cc3)CC2)cc1 | inactive: 5.39% | –
29 | Cc1ccc(C(=O)Nc2nnc(S(=O)(=O)N3CCOCC3)s2)cc1 | inactive: 2.06% | –
30 | O=C(NCc1ccc(F)cc1)C1CCN(C(=O)c2ccc(-n3ccc4ccccc43)s2)CC1 | inactive: -18.5% | –
31 | Cc1ccc(CN2CCCn3nc(C(=O)NCCC(C)C)cc3C2=O)cc1 | inactive: -19.2% | –
32 | COC(=O)c1sc(-c2ccccc2)cc1NC(=O)c1cccc(F)c1 | inactive: 0.0328% | –
33 | COc1cccc(CNC(=O)c2c(C)nn(-c3cccc(C)c3)c2-n2cccc2)c1 | inactive: -6.08% | –
34 | O=C(NCCCc1ccccc1)c1nn(-c2ccccc2F)nc1CO | inactive: -4.39% | –
35 | CC(=O)c1ccc(NC(=O)C2CCC(CNS(=O)(=O)c3ccc(Br)s3)CC2)cc1 (stereo unspecified) | inactive: 3.85% | –
36 | O=C(NC(=O)c1cccc(F)c1)Nc1ccc(-c2cc(C(F)(F)F)nn2-c2ccccc2)cc1 | inactive: -0.237% | –
37 | Cc1nc(-c2ccc(C)c(N3CCN(C(=O)Nc4ccccc4C(F)(F)F)CC3)c2)no1 | inactive: -2.04% | –
38 | O=C(NCCc1ccccc1)c1ccc(CSc2nc3cccnc3n2Cc2ccc(F)cc2)cc1 | inactive: -25.6% | –
39 | CCc1ccc(Sc2cc(C(=O)NCc3ccccc3OC)c3ccccc3n2)cc1 | inactive: -20.7% | –
40 | Cc1cccc(NC(=O)CSc2cn(CC(=O)N3CCCCCC3)c3ccccc23)c1 | inactive: -0.0962% | –
41 | Cc1cc(OC(C)C(=O)Nc2c(C(=O)c3ccc(F)cc3)oc3ccccc23)ccc1Cl (stereo unspecified) | inactive: 16.6% | –
42 | COC(=O)c1ccc(OCC2c3cc(OC)c(OC)cc3CCN2C(=O)Cc2ccc(OC)cc2)cc1 (stereo unspecified) | inactive: -1.67% | –
43 | CCOc1ccc(N2CC(NC(=O)C(=O)c3c[nH]c4ccccc34)CC2=O)cc1 (stereo unspecified) | inactive: 5.33% | –
44 | CCn1c(=O)cc(SCC(=O)NCc2ccc(F)cc2Cl)c2ccccc21 | inactive: -15.3% | –
45 | COc1ccc(C2NC(=O)N(C)C3=C2C(=O)N(c2cccc(Cl)c2)C3)cc1 (stereo unspecified) | inactive: -2.71% | –
46 | CCc1ccc(Sc2cc(C(=O)NCc3cccc(OC)c3)c3ccccc3n2)cc1 | inactive: -12.2% | –
47 | CCc1ccc2nc(N(CCN(CC)CC)C(=O)c3ccco3)sc2c1 | inactive: 0.057% | –
48 | Cc1ccc(NC(=O)c2ccc(-c3cccc(Cl)c3C)o2)cc1 | inactive: 26.9% | –

Row | SMILES | activity change, negative = cytotoxicity | Potency
49 | COc1ccc(OC)c(CNC(=O)c2cc3c(-c4ccc(OC)c(OC)c4)nn(C)c3s2)c1 | inactive: 0.593% | –
50 | Cc1ccc(OCc2nc(-c3ccc(C(=O)N4CCN(c5ccccc5F)CC4)cc3)oc2C)cc1 | inactive: 7.19% | –
51 | O=C1OC(C(=O)Nc2cccc(Br)c2)Cc2ccccc21 (stereo unspecified) | inactive: -17.1% | –
52 | Cc1cccc(-n2ncc(C(=O)N3CCN(c4ccc(Cl)cc4)CC3)c2C2CCN(C(=O)OC(C)(C)C)CC2)c1 | inactive: -8.75% | –
53 | Cc1cccc(N2C(=O)N(CC(=O)C(C)(C)C)c3ccccc3S2(=O)=O)c1C | inactive: 12.8% | –
54 | Cc1ccc(C)c(NC(=O)CN2CCCN(Cc3cccc(Cl)c3)S2(=O)=O)c1 | inactive: -15.9% | –
55 | CCCCCn1c(=O)[nH]c2cc(C(=O)Nc3cc(C)cc(C)c3)ccc2c1=O | inactive: -0.409% | –
56 | CN(C)S(=O)(=O)N(CC(=O)NCCSCc1ccccc1)c1ccccc1 | inactive: 18.1% | –
57 | Cc1ccc(C(=O)N2c3ccc(C)cc3C(C)(c3ccccc3)CC2(C)C)cc1 (stereo unspecified) | inactive: 4.82% | –
58 | CCc1ccc(C(=O)c2cn(CC(=O)Nc3cccc(OC)c3)c3ccc(OC)cc3c2=O)cc1 | inactive: 2.05% | –
59 | COc1ccc(OCC(=O)NCc2ccc3c(c2)CCN3C(=O)c2ccccc2)cc1 | inactive: -22.1% | –
60 | O=C(c1cc2ccccc2oc1=O)N1CCN(c2ccc(Cl)cc2)CC1 | inactive: 25.9% | –
61 | O=C(NCCc1ccccc1)c1cnc2sc(N3CCCCCC3)nn2c1=O | inactive: 22.1% | –
62 | Cc1cc2oc(C(=O)Nc3ccc(S(N)(=O)=O)cc3)cc(=O)c2cc1C | inactive: 2.48% | –
63 | CCc1cccc(NC(=O)CN2C(=O)COc3ccc(S(=O)(=O)Nc4ccccc4)cc32)c1 | inactive: 3.49% | –
64 | Cc1ccc(CNC(=O)c2ccc3c(c2)nc(C)n3-c2cccc(F)c2)cc1 | inactive: 8.41% | –
65 | CC(NC(=O)c1ccc2c(c1)CCN2S(C)(=O)=O)c1ccccc1 (stereo unspecified) | inactive: 28.3% | –
66 | Cc1c(Cl)cccc1NC(=O)c1cccc(NC(=O)N2CCSc3ncccc32)c1 | inactive: -1.57% | –
67 | CCCCOc1ccc(-c2nn(-c3ccccc3)cc2C2NC(=O)NC(C)=C2C(=O)OCC)cc1 (stereo unspecified) | inactive: -8.92% | –
68 | Cc1cc(C(F)(F)F)n2nc(-c3ccc(Br)cc3)cc2n1 | inactive: 5.08% | –
69 | CCC(=O)N1CCc2cc(S(=O)(=O)NC(C(=O)NCCc3ccccc3)C(C)C)ccc21 (stereo unspecified) | inactive: -1.77% | –
70 | Cc1cc(C)c(NC(=O)C(C)n2c(=O)c(C(F)(F)F)nc3ccccc32)c(C)c1 (stereo unspecified) | inactive: -4.55% | –
71 | CCOC(=O)CC(NC(=O)CCc1c(C)nc2c(c(C)nn2-c2ccc(C)c(C)c2)c1C)c1ccc(C)cc1 (stereo unspecified) | inactive: -3.09% | –
72 | Cc1cc(C)cc(OCC(=O)Nc2nc3c(s2)CC(C(C)(C)C)CC3)c1 (stereo unspecified) | inactive: 20.9% | –

Row | SMILES | activity change, negative = cytotoxicity | Potency
73 | Cc1cccc(-n2ncc(C(=O)N3CCN(C4CCCCC4)CC3)c2C2CCN(C(=O)OC(C)(C)C)CC2)c1 | inactive: -8.19% | –
74 | COc1ccc(OC)c2sc(NC(=O)c3ccc(S(=O)(=O)N4CCCC4)cc3)nc12 | inactive: -3.84% | –
75 | COc1ccccc1-c1nc(SCC(=O)c2ccccc2)n[nH]1 | inactive: 15.8% | –
76 | COc1cccc(CNC(=O)Cn2c(=O)ccc3cc(S(=O)(=O)N4CCC(C)CC4)ccc32)c1 | inactive: -0.536% | –
77 | COc1ccc(-n2c3c(c(=O)[nH]c2=O)C(NC(=O)c2ccccc2Cl)(C(F)(F)F)C(=O)N3)cc1 (stereo unspecified) | inactive: 9.28% | –
78 | CCN(c1cccc(C)c1)S(=O)(=O)c1ccc(N2CCCCS2(=O)=O)cc1 | inactive: 7.25% | –
79 | Cc1ccc(NC(=O)c2cc(S(=O)(=O)N(C)C3CCCCC3)ccc2F)cc1C | inactive: -2.93% | –
80 | COc1ccccc1C(=O)Oc1c(Sc2ccccc2)c(C)nn1C(C)(C)C | inactive: -20.7% | –
81 | COc1ccc(CNc2nc(SCc3ccc(Cl)cc3)nc3ccccc23)cc1 | inactive: -4.5% | –
82 | COc1ccc2[nH]c(=O)c(CN(C(=O)c3cccc(Cl)c3)c3ccccc3C)cc2c1 | inactive: -25% | –
83 | CCOc1ccc(C(=O)c2cn(CC(=O)Nc3ccc(OC)cc3)c3cc4c(cc3c2=O)OCCO4)cc1 | inactive: 19.6% | –
84 | C#CCn1c(C2CC(=O)N(c3ccc(OC)cc3)C2)nc2ccccc21 (stereo unspecified) | inactive: -1.81% | –
85 | CC(C)CCn1c(=O)c2cccnc2n(CC(=O)Nc2ccc(F)cc2)c1=O | inactive: -4.44% | –
86 | Cc1cc2nnc(SCc3ccc(F)cc3)n2c2ccccc12 | inactive: 9.91% | –
87 | CC1CN(c2ccc(Cl)cc2)c2nc3c(c(=O)n(CC(=O)O)c(=O)n3C)n2C1 (stereo unspecified) | inactive: -1.94% | –
88 | COc1ccc2occ(CC(=O)Nc3ccc(S(=O)(=O)Nc4nccc(C)n4)cc3)c2c1 | inactive: 9.28% | –
89 | Cc1ccc(CNC(=O)c2sc3nc[nH]c(=O)c3c2C)cc1 | inactive: -3.01% | –
90 | COc1ccc(OCC(=O)Nc2nnc(S(=O)(=O)N3CCc4ccccc43)s2)cc1 | inactive: -3.58% | –
91 | Cc1cccc(C)c1Nc1c(-c2ccccc2F)nc2cccc(C)n12 | inactive: -0.173% | –
92 | CCOC(=O)c1ccccc1NC(=O)C1CCN(c2ncnc3c2nc2n3CCCCC2)CC1 | inactive: 0.681% | –
93 | CCCCN(CC)CCNC(=O)c1c(C)oc2ncnc(N3CCOCC3)c12 | inactive: -6.83% | –
94 | COC(=O)c1ccccc1NC(=O)C1=CC(c2ccc(C)cc2)=NS(=O)(=O)N1C | inactive: -9.99% | –
95 | Cc1cc(C)cc(NC(=O)CN(c2cc(C(F)(F)F)ccc2Cl)S(=O)(=O)c2ccccc2)c1 | inactive: 1.27% | –
96 | O=C(CN1CCN(Cc2ccc(F)cc2)C1=O)NCc1ccccc1Cl | inactive: 6.02% | –
